Reference: the antibiotic and cytotoxicity screens of Wong et al. (2023)
Some of the results follow.

Key:
HSkMC = human skeletal muscle cells; test: cytotoxicity call (relative viability < 0.9); details: 10 µM
S. aureus RN4220 = test: growth inhibition call (relative growth <= 0.2); details: 50 µM
HepG2 = test: cytotoxicity call (relative viability < 0.9); details: 10 µM

| SMILES | cytotoxicity call (HSkMC) | growth inhibition call (S. aureus RN4220) | cytotoxicity call (HepG2) |
| --- | --- | --- | --- |
| CC(C)c1cn(CC[C@@H]2CC[C@H](N)[C@@H](CO)O2)nn1 | inactive | inactive |  |
| C[C@H](CO)N1C[C@H](C)[C@H](CN(C)Cc2ccc(F)cc2)Oc2cc(C#CC3CC3)ccc2S1(=O)=O | inactive | inactive |  |
| Cc1ccc(S(=O)(=O)Nc2ccc3c(c2)C(=O)N([C@@H](C)CO)C[C@@H](C)[C@H](CN(C)Cc2ccc(C(F)(F)F)cc2)OCCCC[C@@H](C)O3)cc1 | inactive | inactive | active |
| C[C@H]1CN([C@@H](C)CO)S(=O)(=O)c2ccc(Br)cc2O[C@@H]1CN(C)S(=O)(=O)c1ccccc1 | inactive | inactive | inactive |
| C=CC[C@@H](CC(=O)N[C@H](CO)Cc1ccccc1)C(=O)N[C@H](COC(=O)[C@@H](CC=C)Cc1ccc(F)cc1)Cc1c[nH]c2ccccc12 | inactive | inactive |  |
| C[C@H](NC(=O)N(C)C[C@H]1OCc2ccccc2-c2c(n(C)c3ccccc23)C(=O)N([C@@H](C)CO)C[C@@H]1C)c1ccccc1 | inactive | inactive |  |
| C[C@@H]1CN([C@H](C)CO)C(=O)c2cc(NC(=O)Nc3cccc4ccccc34)ccc2O[C@H]1CN(C)Cc1ccc(C(=O)O)cc1 | inactive | inactive | inactive |
| C[C@@H]1CN([C@H](C)CO)C(=O)c2cccc(NS(=O)(=O)c3ccc(Cl)cc3)c2O[C@@H]1CN(C)Cc1ccc(-c2ccccc2)cc1 | inactive | inactive | inactive |
| Cc1ccc(S(=O)(=O)Nc2ccc3c(c2)C(=O)N([C@@H](C)CO)C[C@H](C)[C@H](CN(C)Cc2ccc4c(c2)OCO4)OCCCC[C@@H](C)O3)cc1 | inactive | inactive | inactive |
| C[C@@H]1CN([C@H](C)CO)C(=O)c2cccc(NC(=O)CCCCCC(=O)Nc3ccccc3N)c2O[C@H]1CN(C)S(C)(=O)=O | inactive | inactive |  |
| CN1C(=O)c2cc(NC(=O)c3cccs3)ccc2OC[C@@H]2O[C@H](CC(=O)NCC(F)(F)F)CC[C@H]21 | inactive | inactive | inactive |
| O=C(CN1CCOCC1)NCC[C@H]1CC[C@@H](NC(=O)c2ccccc2F)[C@H](CO)O1 | inactive | inactive | inactive |
| COc1ccc(S(=O)(=O)Nc2ccc3c(c2)C(=O)N([C@@H](C)CO)C[C@@H](C)[C@@H](CN(C)Cc2ccccc2)OCCCC[C@H](C)O3)cc1 | inactive | inactive | inactive |
| NNC(=O)Cc1nc2ccccc2[nH]1 | inactive | inactive |  |
| COc1ccc(S(=O)(=O)Nc2ccc3c(c2)C(=O)N([C@@H](C)CO)C[C@H](C)[C@H](CN(C)CC2CCCCC2)OCCCC[C@H](C)O3)cc1 | inactive | inactive |  |
| O=C(NO)c1ccc(C(=O)N/N=C/[C@H](O)[C@@H](O)[C@@H](O)[C@H](O)C(=O)O)cc1 | inactive | inactive | inactive |
| C[C@@H]1CN([C@@H](C)CO)S(=O)(=O)c2ccc(C#CC(C)(C)O)cc2O[C@@H]1CN(C)Cc1ccccc1 | inactive | inactive | inactive |
| C[C@@H]1CN([C@@H](C)CO)C(=O)c2cc(NC(=O)Nc3ccc(C(F)(F)F)cc3)ccc2O[C@H]1CN(C)C(=O)Nc1ccc2c(c1)OCO2 | inactive | inactive | inactive |
| COc1ccc(S(=O)(=O)Nc2ccc3c(c2)C(=O)N([C@H](C)CO)C[C@@H](C)[C@H](CN(C)Cc2ccc(Cl)c(Cl)c2)O3)cc1 | active | inactive | inactive |
| Cn1cnc(S(=O)(=O)N[C@@H]2C=C[C@@H](CC(=O)Nc3ccccc3)O[C@H]2CO)c1 | inactive | inactive | inactive |
| COc1ccc(-c2cc(=O)c3c(O)cc(OC4OC(COC5OC(C)C(O)C(O)C5O)C(O)C(O)C4O)cc3o2)cc1O (stereo not drawn) | inactive | inactive | inactive |
| CC(C)NC(=O)N(C)C[C@@H]1Oc2c(NC(=O)NC3CCCCC3)cccc2C(=O)N([C@@H](C)CO)C[C@H]1C | inactive | inactive | inactive |
| Cc1noc(C)c1NC(=O)Nc1ccc2c(c1)C(=O)N([C@H](C)CO)C[C@H](C)[C@@H](CN(C)C(=O)Cc1ccccc1)OCCCC[C@@H](C)O2 | inactive | inactive | inactive |
| C[C@@H]1CCCCO[C@@H](CN(C)C(=O)c2ccccc2)[C@@H](C)CN([C@@H](C)CO)C(=O)c2cc(NS(=O)(=O)c3cccs3)ccc2O1 | inactive | inactive | inactive |
| COc1ccc(NC(=O)Nc2ccc3c(c2)C(=O)N([C@H](C)CO)C[C@H](C)[C@H](CN(C)C(=O)C2CCCCC2)OCCCC[C@@H](C)O3)cc1 | inactive | inactive | inactive |
